The subject of one test is HSkMC. Kind of test: cytotoxicity call (relative viability < 0.9). Particulars: 10 µM.
The subject of a further test is HepG2. Kind of test: cytotoxicity call (relative viability < 0.9). Particulars: 10 µM.
The subject of another test is S. aureus RN4220. Nature of the test: growth inhibition call (relative growth <= 0.2). Particulars: 50 µM.

Consider 29 molecules from the antibiotic and cytotoxicity screens of Wong et al. (2023).

The list shows a part of the results.

Consider `C[C@@H]1CN([C@@H](C)CO)C(=O)c2cc(C#C[C@@H](C)O)cnc2O[C@H]1CN(C)C(=O)Nc1ccc(C(F)(F)F)cc1`, for which the cytotoxicity call in the test with HSkMC and in the test with HepG2 was “inactive” throughout. Further, the growth inhibition call in the test on S. aureus RN4220 is “inactive”.
`Cc1ccc(S(=O)(=O)Nc2ccc3c(c2)C(=O)N([C@@H](C)CO)C[C@@H](C)[C@@H](CN(C)C(=O)NC2CCCCC2)OCCCC[C@H](C)O3)cc1`: the cytotoxicity call in the test with HSkMC and in the test with HepG2 was “inactive” throughout. Further, the growth inhibition call with S. aureus RN4220 is “inactive”.
Regarding `COc1ccccc1-c1cnc2c(c1)C(=O)N([C@H](C)CO)C[C@@H](C)[C@H](CN(C)C(=O)c1ccncc1)O2`, the cytotoxicity call in the test on HSkMC and with HepG2 was “inactive” each time. Moreover, the growth inhibition call with S. aureus RN4220 is “inactive”.
Turning to `O=c1c(O[C@@H]2O[C@H](CO)[C@@H](O)[C@H](O)[C@H]2O)c(-c2ccc(O)c(O)c2)oc2cc(O)cc(O)c12`, the cytotoxicity call with HSkMC and with HepG2 was “inactive” throughout. Also, the growth inhibition call in the test with S. aureus RN4220 is “inactive”.
As for `CC(=O)N1[C@H](Cn2cncn2)C[C@H]2CN(S(C)(=O)=O)CC[C@H]21`, the cytotoxicity call with HSkMC and with HepG2 was “inactive” each time. The growth inhibition call in the test on S. aureus RN4220 was “inactive”.
In the case of `Cc1ccc(S(=O)(=O)Nc2ccc3c(c2)C(=O)N([C@H](C)CO)C[C@@H](C)[C@@H](CN(C)C(=O)Nc2c(C)noc2C)OCCCC[C@@H](C)O3)cc1`, the cytotoxicity call in the test with HSkMC and with HepG2 was “inactive” in each case. Besides, the growth inhibition call in the test on S. aureus RN4220 was “inactive”.
As to `C[C@H](CO)N1C[C@H](C)[C@H](CN(C)C(=O)c2ccc3c(c2)OCO3)Oc2cc(C#Cc3ccccc3F)ccc2S1(=O)=O`, the cytotoxicity call in the test on HSkMC and with HepG2 was “inactive” in each case. In addition, the growth inhibition call with S. aureus RN4220 is “inactive”.
As for `Cn1ccc(C(=O)O)cc1=O`, the cytotoxicity call in the test with HSkMC and in the test with HepG2 was “inactive” throughout. The growth inhibition call in the test with S. aureus RN4220 was “inactive”.
`C[C@H](CO)N1C[C@H](C)[C@@H](CN(C)Cc2ccc(Oc3ccccc3)cc2)Oc2ccc(NC(=O)C3CCCCC3)cc2C1=O`: the cytotoxicity call with HSkMC and in the test with HepG2 was “inactive” in each case. Moreover, in the test with S. aureus RN4220, the growth inhibition call is “inactive”.
Turning to `CC(C)NC(=O)N[C@H]1C=C[C@H](CC(=O)NCCN2CCCC2)O[C@@H]1CO`, the cytotoxicity call in the test with HSkMC and in the test on HepG2 was “inactive” each time. In the test on S. aureus RN4220, the growth inhibition call is “inactive”.
`O=C(Nc1cc(Cl)cc(Cl)c1O)c1c(O)c(Cl)cc(Cl)c1Cl`: the cytotoxicity call with HSkMC and with HepG2 was “inactive” throughout. For the same molecule, the growth inhibition call with S. aureus RN4220 is “active”.
Consider `O=C(C[C@H]1CC[C@H]2[C@@H](COC[C@H](O)CN2S(=O)(=O)c2ccccc2)O1)NCCN1CCCC1`, for which the cytotoxicity call in the test on HSkMC and in the test on HepG2 was “inactive” in each case. Besides, the growth inhibition call with S. aureus RN4220 is “inactive”.
`CN(C)C(=O)C[C@@H]1CC[C@H]2[C@@H](COC[C@@H](O)CN2S(=O)(=O)c2ccccc2)O1`: the cytotoxicity call in the test with HSkMC and in the test on HepG2 was “inactive” in each case. Besides, the growth inhibition call in the test with S. aureus RN4220 was “inactive”.
Regarding `C#CCN1[C@H](/C=C/C2CC2)[C@H](Cc2ccccc2)OC(=O)[C@@H]1Cc1ccc(-n2cc(COc3ccccc3/C=C(C)/C=C/C(=O)NO)nn2)cc1`, in the test with HSkMC, the cytotoxicity call was “inactive”. In the test on HepG2, the cytotoxicity call was “active”. For the same molecule, the growth inhibition call in the test on S. aureus RN4220 is “inactive”.
For the molecule `C[C@@H]1CN([C@H](C)CO)S(=O)(=O)c2ccc(C#CCC3CCCC3)cc2O[C@H]1CN(C)C(=O)CN(C)C`, the cytotoxicity call with HSkMC and in the test on HepG2 was “inactive” throughout. Besides, in the test with S. aureus RN4220, the growth inhibition call was “inactive”.
`Cc1noc(C)c1NC(=O)Nc1ccc2c(c1)C(=O)N([C@H](C)CO)C[C@H](C)[C@H](CN(C)Cc1ccc(-c3ccccc3)cc1)O2`: the cytotoxicity call in the test on HSkMC and in the test on HepG2 was “inactive” each time. Moreover, the growth inhibition call in the test on S. aureus RN4220 is “inactive”.
In the case of `O=C(Nc1cccc2cccnc12)[C@@H]1[C@H](c2ccc(Br)cc2)CN1C(=O)OCc1ccc([N+](=O)[O-])cc1`, the cytotoxicity call in the test on HSkMC and with HepG2 was “inactive” throughout. The growth inhibition call in the test with S. aureus RN4220 is “inactive”.
Consider `Cc1noc(C)c1S(=O)(=O)N(C)C[C@H]1Oc2c(NC(=O)NC3CCCCC3)cccc2C(=O)N([C@H](C)CO)C[C@@H]1C`, for which the cytotoxicity call in the test with HSkMC and in the test on HepG2 was “inactive” throughout. For the same molecule, the growth inhibition call in the test on S. aureus RN4220 was “inactive”.
Turning to `C[C@@H]1CN([C@@H](C)CO)C(=O)c2cc(NC(=O)c3ccncc3)ccc2O[C@H]1CN(C)S(=O)(=O)c1cccs1`, the cytotoxicity call in the test with HSkMC and in the test on HepG2 was “inactive” in each case. Also, the growth inhibition call with S. aureus RN4220 is “inactive”.
`COc1ccc(cc1)CN1C[C@]2(CN(C2)C(=O)Cc2ccncc2)c2c([nH]c3cc(ccc23)OC)[C@@H]1CO`: the cytotoxicity call in the test on HSkMC and in the test with HepG2 was “inactive” in each case. Moreover, the growth inhibition call in the test on S. aureus RN4220 is “inactive”.
In the case of `Fc1cncnc1`, the cytotoxicity call in the test on HSkMC and in the test with HepG2 was “inactive” throughout. In the test on S. aureus RN4220, the growth inhibition call is “inactive”.
For the molecule `C[C@H](CO)N1C[C@H](C)[C@H](CN(C)Cc2ccccc2C(F)(F)F)OCc2ccccc2-c2ccccc2C1=O`, in the test with HSkMC, the cytotoxicity call is “active”. In addition, the cytotoxicity call with HepG2 is “inactive”. Also, the growth inhibition call with S. aureus RN4220 was “inactive”.
Consider `Cc1noc(C)c1S(=O)(=O)Nc1cccc2c1O[C@H](CN(C)Cc1ccc(C(=O)O)cc1)[C@H](C)CN([C@H](C)CO)C2=O`, for which the cytotoxicity call in the test on HSkMC was “inactive”. In addition, the cytotoxicity call in the test on HepG2 is “active”. The growth inhibition call in the test with S. aureus RN4220 is “inactive”.
For the molecule `C[N+](C)(C)CCCC[C@@H]1NC(=O)[C@@H]2C[C@H](C(=O)NCCCCCCNC(=O)CS)[C@H](c3cccc(OCCO)c3)N2C1=O`, the cytotoxicity call with HSkMC and in the test with HepG2 was “inactive” throughout. In the test on S. aureus RN4220, the growth inhibition call was “inactive”.
Take `C[C@@H]1CN([C@@H](C)CO)C(=O)c2cc(NC(=O)c3ccccc3)ccc2O[C@@H](C)CCCCO[C@H]1CN(C)S(=O)(=O)c1ccc(Cl)cc1`: the cytotoxicity call in the test on HSkMC (human skeletal muscle cells) was “inactive”. In the test on HepG2, the cytotoxicity call was “active”. For the same molecule, the growth inhibition call in the test with S. aureus RN4220 is “inactive”.
For `COC(=O)c1nnc(N)[nH]1`, the cytotoxicity call in the test with HSkMC and in the test on HepG2 was “inactive” in each case. Further, the growth inhibition call in the test on S. aureus RN4220 is “inactive”.
Turning to `C[C@H](CO)N1C[C@H](C)[C@H](CN(C)C(=O)C2CCOCC2)Oc2cc(-c3ccc(C(=O)N(C)C)cc3)ccc2S1(=O)=O`, the cytotoxicity call in the test with HSkMC and with HepG2 was “inactive” each time. In addition, the growth inhibition call with S. aureus RN4220 was “inactive”.
Regarding `C[C@H]1CN([C@@H](C)CO)C(=O)CCCn2cc(nn2)CO[C@H]1CN(C)S(=O)(=O)c1ccc(C#N)cc1`, the cytotoxicity call in the test with HSkMC and in the test with HepG2 was “inactive” throughout. Further, the growth inhibition call in the test on S. aureus RN4220 was “inactive”.
`COCC#Cc1cnc2c(c1)C(=O)N([C@@H](C)CO)C[C@H](C)[C@@H](CN(C)C(=O)CN1CCOCC1)O2`: the cytotoxicity call in the test with HSkMC and in the test with HepG2 was “inactive” each time. Further, the growth inhibition call with S. aureus RN4220 is “inactive”.
